The supplement of paper PMC12355420
Where a name gives a salt, the structure may show the parent alone. This is one part of the list. Cut-off read from the data, not from the text of the source: active = 0.5 or less and inactive = the rest. Single values are uncertain, as repeats are few or missing.

Columns and labels:
Details in all cases: 50 µM; 24 h
[1] = tested on: HeLa VPS33A reporter cells; test: relative cell viability (CellMask signal) vs DMSO (fraction of DMSO); higher = less cytotoxic;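 note: primary screen of an FDA-approved drug library in HeLa reporter cells in 96-well format, CellMask signal normalized to DMSO-treated wells set as 1, under 0.5 deemed highly cytotoxic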
[2] = tested on: HeLa VPS33A R498W KI + HA-SDC1-FLAG; test: relative GAG core protein HA-SDC1 amount per cell number vs DMSO (fraction of DMSO); higher = more SDC1 (GAG core protein);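 note: HA-SDC1 level read out by In-Cell Western staining with an anti-HA antibody against the N-terminal tag, screening FDA-approved library drugs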
[3] = tested on: HeLa VPS33A KO + NLuc-VPS33A R498W; test: relative mutant VPS33A R498W amount (NanoLuc luminescence) vs DMSO (fraction of DMSO); HeLa model of a glycosaminoglycan (GAG) storage disease; KI is knock-in and KO knock-out; SDC1 is syndecan 1; higher = higher mutant VPS33A level;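 note: screen of an FDA-approved drug library, NanoLuc luminescence read after lysing the treated cells, taken as a measure of mutant VPS33A protein stability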

Row | SMILES | relative cell viability [1] | relative GAG core protein HA-SDC1 amount per cell number [2] | relative mutant VPS33A R498W amount [3]
1 | COCCCOc1cc(C[C@@H](C[C@H](N)[C@@H](O)C[C@H](C(=O)NCC(C)(C)C(N)=O)C(C)C)C(C)C)ccc1OC [Aliskiren] | 1.07 | inactive: 1.5 | 1.59
2 | CC(=O)O[C@H]1C[C@@H]2CC[C@@H]3[C@H](CC[C@@]4(C)[C@H]3C[C@H]([N+]3(C)CCCCC3)[C@@H]4OC(C)=O)[C@@]2(C)C[C@@H]1N1CCCCC1 [Vecuronium Bromide] | 1.01 | inactive: 1.31 | 1.48
3 | O=C(O)P(=O)(O)O [Foscarnet Sodium] | 1.07 | inactive: 0.939 | 0.873
4 | C[C@H](CCC(=O)NCC(=O)O)[C@H]1CC[C@H]2[C@@H]3[C@H](O)C[C@@H]4C[C@H](O)CC[C@]4(C)[C@H]3C[C@H](O)[C@]12C [Glycocholic Acid] | 1.04 | inactive: 0.851 | 1.4
5 | C=CCNC1=C2C[C@@H](C)C[C@H](OC)[C@H](O)[C@@H](C)/C=C(\C)[C@H](OC(N)=O)[C@@H](OC)/C=C\C=C(/C)C(=O)NC(=CC1=O)C2=O | 0.865 | inactive: 0.521 | 0.00584
6 | CC(C)/N=c1\cc2n(-c3ccc(Cl)cc3)c3ccccc3nc-2cc1Nc1ccc(Cl)cc1 [Clofazimine] | 0.997 | inactive: 1.05 | 0.745
7 | NCCc1ccc(O)c(O)c1 [Dopamine HCl] | 1.05 | inactive: 0.983 | 1.45
8 | C[C@]12CCC3=C4CCC(=O)C=C4CC[C@H]3[C@@H]1CC[C@@]2(O)CC#N [Dienogest] | 1.03 | inactive: 0.899 | 1.22
9 | NCCCC(=O)O [4-Aminobutyric acid] | 1.05 | inactive: 0.984 | 1.17
10 | NCC[C@H](O)C(=O)N[C@@H]1C[C@H](N)[C@@H](O[C@H]2O[C@H](CN)[C@@H](O)[C@H](O)[C@H]2O)[C@H](O)[C@H]1O[C@H]1O[C@H](CO)[C@@H](O)[C@H](N)[C@H]1O [Amikacin disulfate] | 1.24 | inactive: 1.54 | 1.07
11 | C=C1CC[C@H](O)C/C1=C/C=C1\CCC[C@]2(C)[C@@H]([C@H](C)CCCC(C)(C)O)CC[C@@H]12 [Calcifediol] | 0.895 | inactive: 0.67 | 1.65
12 | CC[C@H]1OC(=O)[C@H](C)[C@@H](O[C@H]2C[C@@](C)(OC)[C@@H](O)[C@H](C)O2)[C@H](C)[C@@H](O[C@@H]2O[C@H](C)C[C@H](N(C)C)[C@H]2O)[C@](C)(O)C[C@@H](C)/C(=N\OCOCCOC)[C@H](C)[C@@H](O)[C@]1(C)O [Roxithromycin] | 1.02 | inactive: 0.857 | 1.08
13 | C[N+](C)(C)CC(=O)O [Betaine] | 1.07 | inactive: 1.04 | 1.42
14 | CCCCNc1cc(C(=O)O)cc(S(N)(=O)=O)c1Oc1ccccc1 [Bumetanide] | 1.18 | inactive: 1.08 | 1.39
15 | C[C@]12CC[C@@H]3c4ccc(OC(=O)c5ccccc5)cc4CC[C@H]3[C@@H]1CC[C@@H]2O [Estradiol Benzoate] | 1.02 | inactive: 0.681 | 0.91
16 | CSc1nc2cc(Cl)c(Oc3cccc(Cl)c3Cl)cc2[nH]1 [Triclabendazole] | 0.91 | active: 0.199 | 2.52
17 | Nc1ccc(S(=O)(=O)c2ccc(N)cc2)cc1 [Dapsone] | 1.04 | inactive: 0.851 | 1.41
18 | N[C@H]1CONC1=O [L-Cycloserine] | 1.03 | inactive: 1.01 | 1.18
19 | CC(=O)O[C@]1(C(C)=O)CC[C@H]2[C@@H]3CCC4=CC(=O)CCC4=C3[C@@H](c3ccc(N(C)C)cc3)C[C@@]21C [Ulipristal acetate] | 1.19 | active: 0.293 | 0.493
20 | O=C(NC(Cc1cc(=O)[nH]c2ccccc12)C(=O)O)c1ccc(Cl)cc1 (configuration not stated) [Rebamipide] | 0.957 | inactive: 0.983 | 1.43
21 | Nc1nc(=O)[nH]cc1F [Flucytosine] | 1.12 | inactive: 1.08 | 1.02
22 | Nc1ccc(S(=O)(=O)Nc2ncccn2)cc1 [Sulfadiazine] | 1.15 | inactive: 0.942 | 0.862
23 | O=C(O)Cc1ccccc1Nc1c(Cl)cccc1Cl [Diclofenac] | 1.02 | inactive: 0.817 | 1
24 | CCCc1nc(C(C)(C)O)c(C(=O)OCc2oc(=O)oc2C)n1Cc1ccc(-c2ccccc2-c2nnn[nH]2)cc1 [Olmesartan medoxomil] | 1.08 | inactive: 1.16 | 1.06
